This note sets out measurements from ChEMBL document CHEMBL4888484, “Replenishing the malaria drug discovery pipeline: Screening and hit evaluation of the MMV Hit Generation Library 1 (HGL1) against asexual blood stage Plasmodium falciparum ,using a nano luciferase reporter read-out” (2022).

Hit rate of the full screen: of about 150,000 compounds, about 540 (0.36%) showed an effect of 50% or more. Some of the results follow.

The test system of this experiment is Plasmodium falciparum. The experiment is described as follows: Primary screen in NF54 nanoGlo assay, in single point, at 2uM, 72h; a lower Z score goes with more inhibition. It counts as functional, Erythrocyte. To be noted: timepoint 72 hour.
For the molecule `O=S(=O)(Nc1nnc(CCc2ccccc2)o1)c1ccccc1F`, the “% Inhibition” value is listed as -6% and the Z score turned out to be 0.72.
Regarding `O=C(NCC1CCCC1O)Nc1cccs1` (stereo unspecified), the “% Inhibition” value came out at 0% and the Z score turned out to be 0.03.
For the molecule `Cc1nc(C(C)C)ncc1C(=O)NCCCN(C)c1ccccc1`, the “% Inhibition” value was -15% and the Z score turned out to be 2.15.
Take `COc1ccccc1NC(=O)c1c(C)c(C)n[nH]c1=O`: the “% Inhibition” value is listed as -6% and the Z score worked out at 0.76.
The like results for `O=C(NCc1ccc(N2CCOCC2)cc1)[C@H]1CCC(=O)N(C2CC2)C1` were, in that order, -17% and 2.43.
Turning to `COCc1csc(NS(=O)(=O)c2cc(C)c(C)s2)n1`, the “% Inhibition” value is -5% and the Z score worked out at 0.57.
In the case of `Cc1ccc(CN2CCc3c(cc(C(=O)N4CCC(N5CCCCC5)CC4)n3C)C2)cc1`, the “% Inhibition” value is -13% and the Z score is 2.28.
The like results for `O=C(Nc1[nH]c(=O)ncc1F)c1cccc2ccccc12` were, in that order, 85% and -7.83.
In the case of `COc1cc(C)c(-c2nc3c(cnn3C)[nH]2)c(C)c1C`, the “% Inhibition” value is 1% and the Z score is on record as -0.19.
The like results for `CCN(C(=O)c1coc2ccccc12)[C@@H](C)CO` were, in that order, -16% and 1.91.
The like results for `CCNc1ncc(C(=O)N(CC)Cc2cc(Cl)ccc2OC)cn1` were, in that order, 2% and -0.29.
For `Cc1c(CC(=O)NC[C@H]2COCCO2)c2c(n1Cc1ccccc1)CCCC2=O`, the “% Inhibition” value is reported as 1% and the Z score is recorded as -0.17.
The like results for `Cc1nnc(N2CCN(C)[C@@H](CO)C2)nc1C` were, in that order, -6% and 0.6.
Take `CN(C(N)=NCc1cc(Br)c2c(c1)OCO2)C1CC1`: the “% Inhibition” value is -13% and the Z score is given as 1.62.
The like results for `Cc1n[nH]c(C)c1-c1cc(-c2cccnc2)nc(N)c1C#N` were, in that order, -3% and 0.66.
Turning to `O=C(c1cccc(NS(=O)(=O)c2ccc(F)c(F)c2)c1)N1CCN(c2cccc(C(F)(F)F)c2)CC1`, the “% Inhibition” value is -6% and the Z score came to 1.19.
For `Cc1cc(Cl)c2oc(C(=O)N3CCC[C@H]3c3nonc3C)c(C)c2c1`, the “% Inhibition” value was -14% and the Z score is given as 1.26.
`COc1ccc(Cl)cc1[C@@H](O)CNC(=O)c1cc(C)nn1C1CCOCC1`: the “% Inhibition” value is 1% and the Z score is -0.17.
As to `COCCNc1nc(=O)c2c([nH]1)NC(=O)[C@@H](CC(=O)Nc1ccc(Cl)c(Cl)c1)C2`, the “% Inhibition” value is listed as 31% and the Z score is listed as -3.5.
The like results for `O=C(CCC1CCCCC1)N1CCN(C(=O)c2cnn3cccnc23)CC1` were, in that order, -6% and 0.7.
In the case of `Cc1nccc(O[C@H]2CCN(C(=O)NCc3cccs3)C2)n1`, the “% Inhibition” value is on record as -12% and the Z score is listed as 1.87.
With `COc1ccc(CCN2C(=O)C[C@H](c3ccccc3)C2=O)cc1OC`, the “% Inhibition” value turned out to be 31% and the Z score is -3.47.
The like results for `CC1CN(Cc2ccc(-c3ccn[nH]3)o2)CC[S+]([O-])C1` (stereo unspecified) were, in that order, -16% and 1.61.
`CC1=C(CCN2C[C@@H]3CC[C@H]2CN(S(=O)(=O)N(C)C)C3)C(C)(C)CCC1`: the “% Inhibition” value is -6% and the Z score was 0.96.
The like results for `CC(C)(C)c1cc(C(=O)N2CCCC[C@H]2C(=O)O)no1` were, in that order, 0% and -0.04.
Take `Cc1coc(C(=O)N(Cc2ccccc2)c2ccncc2)c1C`: the “% Inhibition” value is recorded as -15% and the Z score turned out to be 1.48.
With `CC(C)(C)OC(=O)N1CCCC[C@@H]1Cc1cc(C(=O)O)no1`, the “% Inhibition” value is -11% and the Z score was determined as 1.43.
For `COCCN(Cc1c(C(C)C)nn(-c2ccccc2)c1Oc1ccccc1F)C(=O)c1ccc(F)cc1`, the “% Inhibition” value is -5% and the Z score is 0.78.
Take `C=CCN1C[C@@H](C(=O)N2CCCCCCC2)CC1=O`: the “% Inhibition” value came out at 7% and the Z score was -0.92.
With `O=C(N[C@H]1CCOC1)C(c1ccccc1)c1ccccc1`, the “% Inhibition” value is listed as -2% and the Z score worked out at 0.28.
Consider `Cc1ccc(F)cc1-c1cnn(CC2CC2)c1`, for which the “% Inhibition” value is given as -5% and the Z score is given as 0.91.
With `Cc1nc(CNc2ncccc2CO)cs1`, the “% Inhibition” value is -5% and the Z score is reported as 0.9.
The like results for `C[C@H](N)c1cccc(Br)c1` were, in that order, -9% and 0.94.
The like results for `Cc1nc2n(n1)C[C@@H](C(=O)N(C)CCOc1ccc(O)cc1)CC2` were, in that order, 4% and -0.73.
As to `Cc1c[nH]c(CN(C)C(=O)CCc2scnc2C)n1`, the “% Inhibition” value is -11% and the Z score is 1.66.
Take `CCC(C)C(C)N(C(=O)NCC(F)(F)F)C1CC1` (stereo unspecified): the “% Inhibition” value is -19% and the Z score was 2.95.
Regarding `Cn1nccc1-c1ccccc1CN1CC[C@@](O)(C(F)F)C1`, the “% Inhibition” value is recorded as -15% and the Z score came to 1.95.
As for `Cc1cc(C)c(S(=O)(=O)N2CCC[C@H](C(=O)N3CCCC3)C2)c(C)c1`, the “% Inhibition” value is recorded as -14% and the Z score worked out at 1.98.
The like results for `O=C1C[C@@H](c2ccc(C(F)(F)F)cc2)c2c(O)nc(N3CCN(CCO)CC3)nc2N1` were, in that order, 30% and -4.39.
As for `CS(=O)(=O)CCC(=O)N(CCc1c[nH]c2ccccc12)C1CCCCC1`, the “% Inhibition” value came out at 0% and the Z score is -0.01.
Consider `CC1=NS(=O)(=O)N(CC(=O)NCc2ccc(C)cc2)C=C1c1nc(C)no1`, for which the “% Inhibition” value worked out at 3% and the Z score is -0.32.
The like results for `Clc1ccc(Cn2c(-c3cccs3)nc3ccccc32)c(Cl)c1` were, in that order, -7% and 0.91.
`Cc1ccc(C(=O)N[C@H]2CCC23CCOCC3)c(C)c1`: the “% Inhibition” value is recorded as 10% and the Z score is recorded as -1.3.

Broadly, the % Inhibition is the relative decrease from the control value, in per cent.
